Data reported in PubChem BioAssay AID686978 (National Center for Advancing Translational Sciences (NCATS), 2013).
Out of some 420,000 compounds screened, about 64,000 (15%) were called active. The shares of active, inactive and inconclusive entries below differ from those in the screen. The call rests on the fitted dose curve; in most records, active means well fitted inhibition curve with a large enough effect; inconclusive means small, poorly fitted or top-dose-only effect; inactive means flat fitted curve, though single readings scatter. Potencies of inconclusive entries are left out as doubtful fits.

Assay: qHTS for Inhibitors of human tyrosyl-DNA phosphodiesterase 1 (TDP1): qHTS in cells in absence of CPT; further: nearly all actives have a fitted effect of over 55% in size
Conditions: DT40 Tdp1-/- hTDP1 cells, no CPT, ATP luminescence, 48 h; activity change, negative = growth inhibition: at 46.2 µM (top of the series) unless noted
Summary of the method: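 Stably hTDP1-transfected Tdp1-null chicken DT40 cells were treated with library compounds minus camptothecin and grown for at least 48 hr at 37 °C, after which cellular ATP was quantified by luminescence.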
On the % scale 0 is the no-effect control and ±100 the full control effect; potency means the concentration at half of the fitted maximal effect; tags describe the fitted curve by direction and shape.

Compound	Potency	activity change, negative = growth inhibition
CCCC[C@H]1COCCS(=O)(=O)N1Cc1cccc(Cl)c1	inconclusive [inhibitor, single point]	–
CCc1noc(C)c1C(=O)Nc1ccc(S(=O)(=O)N2CCCCC2)cc1	inconclusive [inhibitor, partial curve]	–
CCc1ccc(CNC(=O)c2cc3cc4ccc(OC)cc4nc3o2)cc1	inconclusive [inhibitor, partial curve, poor fit]	–
CCc1nc2ccc(C(=O)Nc3ccc(OC)c(OC)c3)cn2c1N(CCC(C)C)CCN(C)C	inconclusive [inhibitor, single point]	–
CC(C)(C)NC(=O)c1ccccc1-c1nc2ccccc2s1	inconclusive [inhibitor, single point]	–
CCOc1ccccc1-c1ccc(C(=O)NCc2ccc(Cl)cc2)o1	inconclusive [inhibitor, single point]	–
COc1ccc(N2CCN(CC(=O)NC(=O)NCc3ccccc3)CC2)cc1	inactive	–
O=C(NCCO)C(=O)NCC(c1cccs1)S(=O)(=O)c1ccc(F)cc1 (configuration not stated)	inactive	–
COc1ccc(-c2c(-c3ccccc3OC)oc3ccccc23)cn1	inconclusive [inhibitor, single point]	–
COc1ccccc1Cc1c(-c2cccc(Cl)c2)nc2c(C)cc(Br)cn12	inconclusive [inhibitor, single point]	–
Cc1ccc(NC(=O)c2cccc(S(=O)(=O)N3CCN(c4ccc(F)cc4)CC3)c2)nc1	inconclusive [inhibitor, single point]	–
CCOC(=O)C1=C(C)N=C2c3ccccc3C(=O)C2C1c1ccccc1 (configuration not stated)	inconclusive [inhibitor, single point]	–
CC(C)n1nc(C(=O)Nc2nnc(SCc3c(Cl)cccc3Cl)s2)c2ccccc2c1=O	inconclusive [inhibitor, partial curve]	–
Cc1ccc(NC(=O)C(=O)NCC(c2ccc3c(c2)OCO3)N2CCN(C)CC2)cc1C (configuration not stated)	inconclusive [inhibitor, single point]	–
Cn1c(SCC(=O)NNC(=O)Cc2ccccc2)nc2ccccc2c1=O	active: 13 µM	–
CN1CCN(c2ccc([N+](=O)[O-])cc2C(=O)c2ccccc2)CC1	inconclusive [inhibitor, single point]	–
COc1ccc(-c2cc(C(=O)NCc3ccc(C)cc3)c3cc(C(C)C)ccc3n2)cc1	inconclusive [inhibitor, single point]	–
CC(OC(=O)Cc1c(F)cccc1Cl)C(=O)NC1CCCCC1C (configuration not stated)	inconclusive [inhibitor, single point]	–
Cc1c(NC(=S)N/N=C/C=C/c2ccc([N+](=O)[O-])cc2)c(=O)n(-c2ccccc2)n1C	–	inconclusive: -33.8% [inhibitor]
COc1ccc(/C=C2\SC(N3CCCCC3)=NC2=O)cc1	inconclusive [inhibitor, partial curve, poor fit]	–
CCN(CC)S(=O)(=O)c1ccc2c(c1)c(=O)c(C(=O)N1CCN(c3ccccc3OC)CC1)cn2C	inconclusive [inhibitor, single point]	–
CCc1nc2ccc(C(=O)N3CCN(C(=O)c4ccco4)CC3)cn2c1N(C)CCC(C)C	inconclusive [inhibitor, single point]	–
CC(C)CCNC(=O)Cn1cc(S(=O)(=O)Cc2ccc(F)cc2)c2ccccc21	inconclusive [inhibitor, partial curve, poor fit]	–

Compound	Potency	activity change, negative = growth inhibition
COc1ccc2c(c1)[C@H]1[C@H](CO2)[C@H](c2ccccc2)[C@]2(C)C(=O)Nc3ccc(Cl)cc3C(=O)N12	inconclusive [inhibitor, single point]	–
c1ccc(N2CCN(Cc3ccc4c(c3)OCO4)CC2)nc1	inactive	–
CCOC(=O)Cn1c(S(=O)(=O)Cc2ccccc2Cl)nc(-c2ccccc2)c1-c1ccccc1	active: 14.6 µM	–
C=CCNC(=O)NC(=O)COC(=O)c1cccnc1SC	inactive	–
COc1cccc2cc(-c3nc4ccc(C)cc4[nH]3)c(=O)oc12	inconclusive [inhibitor, single point]	–
Cc1cc(OCC#N)nc(N)n1	inconclusive [inhibitor, single point]	–
O=C(NCCCN1CCN(c2ccccc2F)CC1)c1sc2ncccc2c1-n1cccc1	active: 20.6 µM	–
O=C(NC(=S)N1CCCCC1)c1cccs1	active: 14.6 µM	–
Cc1ccc(S(=O)(=O)N2CCOCC2)cc1C(=O)OCC(=O)NCCc1ccccc1	inconclusive [inhibitor, single point]	–
CS(=O)(=O)c1ccc2nc(NC(=O)c3cccc(NS(=O)(=O)c4ccc(F)c(F)c4)c3)sc2c1	inconclusive [inhibitor, partial curve, poor fit]	–
O=C(O)C1CCN(S(=O)(=O)c2ccc(N3CCOCC3)c([N+](=O)[O-])c2)CC1	inconclusive [inhibitor, full curve]	–
O=S(=O)(c1ccccc1)N1N=C(c2ccccc2)CC1c1ccccc1F (configuration not stated)	inconclusive [inhibitor, single point]	–
Cc1cccc(C)c1NC(=O)c1cc(S(=O)(=O)N2CCC3(CC2)OCCO3)ccc1F	inactive	–
CCn1c(SCc2nc(-c3ccccc3)no2)nnc1-c1ccco1	–	inconclusive: -31% [inhibitor]
CCCC(=O)OC1=C(C(C)=O)N(Cc2ccccc2)S(=O)(=O)c2ccccc21	inconclusive [inhibitor, single point]	–
COc1cc(CN2C[C@@H](CO)O[C@@H](n3cnc4c(NCCCO)ncnc43)C2)cc(OC)c1OC	inactive	–
C=CC[C@@H](Cc1ccc(F)cc1)C(=O)OC[C@H]1CCCN1C(=O)[C@@H](CC=C)CC(=O)N[C@@H](CO)Cc1ccccc1	active: 11.6 µM	–
CCCN(CCC)Cc1cc(=O)oc2cc(C)c(C)cc12	inconclusive [inhibitor, single point]	–
COC(=O)c1ccc(CNC(=O)C23CC4CC(CC(C4)C2)C3)cc1	inconclusive [inhibitor, partial curve]	–
CCCC(=O)N1CCN(c2nnc(-c3ccc(C)cc3)c3ccccc23)CC1	inconclusive [inhibitor, single point]	–
CCc1ccc(N(C(=O)c2snc(C(N)=O)c2N)C(C(=O)NC2CCCC2)c2ccco2)cc1 (configuration not stated)	inconclusive [inhibitor, single point]	–
COc1ccc(/C=N/NC(=O)Cc2cc(OC)c(OC)cc2[N+](=O)[O-])cc1	inactive	–
CC(=O)N1c2ccc(S(=O)(=O)NCC3CCC(C(=O)Nc4cccc(C)c4)CC3)cc2CC1C (configuration not stated)	active: 14.6 µM	–

Compound	Potency	activity change, negative = growth inhibition
CCN(Cc1ccccc1)C(=S)NC(=O)c1ccccc1Br	inconclusive [inhibitor, single point]	–
O=C(C1=NN[C@@H]2C(=O)N(Cc3ccccc3)C(=O)[C@H]12)c1ccc(F)cc1	–	inconclusive: -32.6% [inhibitor]
c1cncc(CSc2ccc(-c3cccs3)nn2)c1	inconclusive [inhibitor, single point]	–
CC(C)C(=O)Nc1cc(-c2nc3ncccc3o2)ccc1Cl	inactive	–
O=c1c2ccccc2n2c(-c3cccc(Cl)c3)nnc2n1Cc1ccccc1	inconclusive [inhibitor, single point]	–
COc1cc(-c2cc(-c3ccc(O)cc3)nc(N)c2C#N)ccc1O	inconclusive [inhibitor, single point]	–
COc1ccc(-n2nnnc2SCC(=O)Nc2cccc(C)n2)cc1OC	inactive	–
Cc1nc(N2CCCCC2C)c2c(C)c(C(=O)Nc3ccccc3C(F)(F)F)sc2n1 (configuration not stated)	inconclusive [inhibitor, single point]	–
CCc1cccc(CC)c1NC(=O)/C(C#N)=C/c1ccccc1C(F)(F)F	active: 20.6 µM	–
CCCC(=O)N1CCN(c2ccc(NC(=O)c3ccc([N+](=O)[O-])o3)cc2Cl)CC1	active: 5.8 µM	–
CCNC(=S)NNC(=O)c1csc2c1CCC(C)C2 (configuration not stated)	inconclusive [inhibitor, single point]	–
Cc1ccc(C)c(C(C)NC(=O)c2ccc(Br)o2)c1 (configuration not stated)	inconclusive [inhibitor, single point]	–
COc1ccc(-c2cc(C(F)(F)F)nc(N3CCCCCC3)n2)cc1	inactive	–
Cc1cc(Br)ccc1NC(=O)c1ccccc1-c1ccccc1	inconclusive [inhibitor, single point]	–
Cc1onc(-c2c(F)cccc2Cl)c1C(=O)Nc1ccc(Cl)c(S(=O)(=O)N(C)C)c1	inconclusive [inhibitor, partial curve]	–
COc1cccc(N2CCN(C(=O)C3CCC(=O)N(C4CCCCCC4)C3)CC2)c1 (configuration not stated)	active: 18.4 µM	–
O=C(CCS(=O)(=O)c1cc2c(cc1Cl)NC(=O)CO2)NCc1ccccc1	inactive	–
COC(=O)c1cc(Cl)c(NC(=O)/C=C/c2ccc(Cl)cc2)cc1OC	inconclusive [inhibitor, full curve]	–
COc1cccc(NC(=O)Nc2cccc(C)n2)c1	inconclusive [inhibitor, single point]	–
Cc1cc2c(c(SCC#N)n1)C(=O)OC2	inactive	–
C=CCSc1nc2sc3c(c2c(=O)n1-c1ccccc1)CCN(C)C3	inactive	–
